Experimental data: a compilation of properties of binary mixtures (doi:10.1021/acs.jpcb.0c04870)
Some of these densities may be calculated back from excess volumes.

Assay: xn = mol fraction of the nth substance listed
Settings: 293 K, 100 kPa

SMILES	mass density (x2 = 0) [kg/m3]	mass density (x1 = 0.01) [kg/m3]	mass density (x1 = 0.03) [kg/m3]	mass density (x1 = 0.05) [kg/m3]	mass density (x1 = 0.1) [kg/m3]	mass density (x1 = 0.2) [kg/m3]	mass density (x1 = 0.3) [kg/m3]	mass density (x1 = 0.4) [kg/m3]	mass density (x1 = 0.6) [kg/m3]	mass density (x1 = 0.8) [kg/m3]
CS(C)=O + CCCCCCCCn1cc[n+](C)c1.F[B-](F)(F)F	1101	–	–	–	–	–	–	–	–	–
CCCCCCCCn1cc[n+](C)c1.F[B-](F)(F)F + CS(C)=O	–	1101	1102	1103	1104	1104	1106	1106	1107	1108
